One series deals with T1, Mouse GLP-1R (Mus musculus, UniProt O35659).
T1 construct: expressed in transfected cells; host or cells: HEK-293
T1 sequence (O35659 22-463): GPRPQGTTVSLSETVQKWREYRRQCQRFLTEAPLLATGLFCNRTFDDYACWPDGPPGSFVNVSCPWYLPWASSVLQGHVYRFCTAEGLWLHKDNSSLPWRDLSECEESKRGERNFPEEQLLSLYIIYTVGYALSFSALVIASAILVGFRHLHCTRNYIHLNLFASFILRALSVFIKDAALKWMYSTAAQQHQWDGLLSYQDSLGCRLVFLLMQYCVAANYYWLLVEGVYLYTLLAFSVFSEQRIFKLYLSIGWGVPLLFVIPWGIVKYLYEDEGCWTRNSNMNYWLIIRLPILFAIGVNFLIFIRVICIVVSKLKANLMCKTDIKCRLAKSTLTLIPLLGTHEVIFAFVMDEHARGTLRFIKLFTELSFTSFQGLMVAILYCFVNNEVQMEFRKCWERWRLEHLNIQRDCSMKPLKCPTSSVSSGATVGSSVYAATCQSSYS
The series is described as follows: HTRF cAMP assay in HEK-293 cells, mouse GLP-1R. In kind it is cell-based.

Series [1] in a line: Pharmacokinetics after single subcutaneous administration in mouse. In kind it is in vivo, female C57BI/6 mice. The following applies: 0.3 mg/kg subcutaneous. As to the method:
(§1) Plasma concentrations and pharmacokinetic parameters of GLP-1 RA/FGF21 Fc fusion proteins were determined after single subcutaneous administration of 0.3 mg/kg in solution to female C57BI/6 mice or male Cynomolgus monkeys using three different methods. Blood samples were obtained at time points from 30 minutes to 168 hours after dosing. […]
(§2) a.) Bioanalytical Screening Method for Quantification of the Intact FGF21 Part of the GLP-1 RA/FGF21 Fc Fusion Proteins Plasma samples were analyzed for the intact FGF21 part of the fusion proteins with an ELISA kit (F1231-K01, Eagle Biosciences, USA). The assay utilized the two-site sandwich technique with two selected antibodies that bound to different epitopes of human intact FGF21. One of the antibodies specifically bounds to the N-terminal amino acids (aa) 29-35 of human FGF21 and the other antibody specifically bound to the C-terminus (aa 203-209) of human FGF21. Assay standards, controls and unknown samples were added directly to wells of microplate that is coated with an anti-human FGF21 (aa 29-35)-specific antibody. Simultaneously, a horseradish peroxidase conjugated anti-human FGF21 (aa 203-209)-specific antibody was added to each well. After the first incubation period, the antibody on the walls of microtiter wells captured human FGF21 in the sample and unbound protein in each microtiter well is washed away. A “sandwich” of “anti-FGF21 antibody-human intact FGF21-HRP conjugated tracer antibody” was formed. The unbound tracer antibody was removed in the subsequent washing step. For the detection of this immunocomplex, the well was then incubated with a substrate solution in a timed reaction and then measured in a spectrophotometric microplate reader. The enzymatic activity of the immunocomplex bound to human intact FGF21 on the walls of the microtiter wells was directly proportional to the amount of intact FGF21 in the sample. […]
b.) Bioanalytical Screening Method for Quantification of the Intact Full-Length Fusions Proteins The concentration of the full-length GLP-1RA/FGF21 Fc fusion proteins in plasma were determined utilizing an ELISA method. The N-terminus of the fusion proteins were captured by a mouse monoclonal anti-GLP1 antibody (Mesoscale Discovery, MSD). […] Following washing 3 times with 300 μL PBS-T 150 μL read buffer was added to the wells. […]
c.) Bioanalytical Screening Method for Quantification of the Intact GLP-1 Part of the GLP-1 FGF21 Fc Fusion Proteins Plasma samples were analyzed for the intact GLP-1 part of the fusion proteins with a GLP-1 ELISA method. […]

Series [2] is described as follows: Conformational and thermal stability on UNit (intrinsic fluorescence and static light scattering). Type of series: physicochemical. The following applies: 5 mg/mL in phosphate buffer pH 7.4; for Tagg (aggregation onset temperature): UNit SLS 266 nm; for Tm (melting temperature): UNit. As to the method:
Conformational stability and propensity to aggregate was determined simultaneously for the GLP-1RA/FGF21 Fc fusion proteins using a UNit (Unchained Labs, Calif., USA). The UNit combines the analysis of intrinsic fluorescence of a protein or polypeptide to detect unfolding of the protein or polypeptide and a Static Light Scattering (SLS) measurement in order to investigate aggregation behavior.
Data were acquired for the fusion proteins at a concentration of 5 mg/mL formulated in phosphate buffer at pH 7.4. A volume of 9 μL of each sample were loaded into a UNi capillary holder and analyzed in triplicate on the UNit. The temperature was increased from 20 to 95° C. at a constant linear rate of 0.3° C./minutes. The BaryCentric Mean (BCM) indicating the intrinsic fluorescence and SLS signals detected with a 266 nm laser were plotted against the applied temperature in order to obtain melting temperatures (Tm) and aggregation onset temperatures (Tagg). Data were analyzed using the UNit Analysis software v.

In the next series the target is T2, Human GLP-1R (Homo sapiens, UniProt P43220).
T2 construct: expressed in transfected cells; host or cells: HEK-293
T2 sequence (P43220 24-463): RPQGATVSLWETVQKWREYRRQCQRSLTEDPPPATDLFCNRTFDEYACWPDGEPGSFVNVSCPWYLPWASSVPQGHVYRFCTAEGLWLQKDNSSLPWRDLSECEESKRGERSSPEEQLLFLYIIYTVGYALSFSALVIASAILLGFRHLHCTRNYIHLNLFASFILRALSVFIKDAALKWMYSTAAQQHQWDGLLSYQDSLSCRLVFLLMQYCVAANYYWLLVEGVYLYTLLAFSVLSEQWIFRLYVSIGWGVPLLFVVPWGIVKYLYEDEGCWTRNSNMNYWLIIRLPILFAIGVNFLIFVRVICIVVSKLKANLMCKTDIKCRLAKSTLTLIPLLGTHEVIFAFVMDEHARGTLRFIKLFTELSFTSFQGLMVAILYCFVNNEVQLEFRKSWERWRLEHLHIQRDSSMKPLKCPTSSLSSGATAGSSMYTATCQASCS
The series is described as follows: HTRF cAMP assay in HEK-293 cells, human GLP-1R. Type of series: cell-based. (TR-FRET usually uses a lanthanide donor and a delayed reading to cut background.)

The nature of series [3]: Pharmacokinetics after single subcutaneous administration in non-human primate. In kind it is in vivo, male Cynomolgus monkeys. As to conditions: 0.3 mg/kg subcutaneous. The method, then: as §1, §2
b.) Bioanalytical Screening Method for Quantification of the Intact Full-Length Fusions Proteins The concentration of the full-length GLP-1RA/FGF21 Fc fusion proteins in plasma were determined utilizing an ELISA method. The N-terminus of the fusion proteins were captured by a mouse monoclonal anti-GLP1 antibody (Mesoscale Discovery, MSD). Following blocking the plates with 150 μL of Blocker A (MSD) for 1 hour at room temperature (RT) with gentle shaking and washing 3 times with 300 μL wash buffer 50 μL of diluted plasma samples (standards and PK study samples) were added to each well and the plates were incubated for 1 hour at RT with gentle shaking. Following washing 3 times with 300 μL wash buffer 50 μL of the primer detection antibody (C-terminus rabbit anti-FGF21 antibody, Pineda Antikörper-Service, Berlin, Germany) was added to each well and the plates were incubated for 1 hour at RT. Following washing 3 times with 300 μL wash buffer 25 μL goat-anti-rabbit antibody (Sulfo-Tag labelled, MSD) diluted in PBS-Tween 0.05% (PBS-T) was added to each well and the plates were incubated for 1 hour at RT. Following washing 3 times with 300 μL PBS-T 150 μL read buffer was added to the wells. […]
c.) Bioanalytical Screening Method for Quantification of the Intact GLP-1 Part of the GLP-1 FGF21 Fc Fusion Proteins Plasma samples were analyzed for the intact GLP-1 part of the fusion proteins with a GLP-1 ELISA method. The ELISA plates were coated with mouse monoclonal anti-GLP-1 antibody (Mesoscale Discovery, MSD). Following blocking with 150 μL of Blocker A (MSD) for 1 hour at room temperature (RT) with gentle shaking and washing 3 times with 300 μL PBS-T, 50 μL of diluted plasma samples (standards and PK study samples) were added to each well and the plates were incubated for 1 hour at RT with gentle shaking. Following washing 3 times with 300 μL PBS-T, 25 μL of goat anti-human IgG diluted ( 1/3,333) in PBS-T (Sulfo-Tag labelled, MSD) was added to each well and the plates were incubated for 1 hour at RT. […]

In a further series the target is T3, Monkey GLP-1R (Macaca fascicularis, UniProt F8V479).
T3 construct: expressed in transfected cells; host or cells: HEK-293
T3 sequence (F8V479 24-463): as the sequence (P43220 24-463) above, with S112N, F120S, S202G, L205V, L237F, W241R, I249V counted along it
The series is described as follows: HTRF cAMP assay in HEK-293 cells, monkey GLP-1R. Type of series: cell-based.

The term EC50 denotes the concentration at which the effect is half-maximal.

B1: 7 (protein)
chain: GHGEGTFTSDKSKQLEEEAVRLFIEWLKAGGPKKIRYSGGGGGGGSGGGGSGGGGSA[… human IgG1 Fc with changes …]GGGSGSAHPIPDSSPLLQFGGQVRQRYLYTDDACQTEAHLEIREDGTVGGAADQSPESLLQLKALKPGVIQILGVKTSRFLCQRPDGALYGSLHFDPEACSFRELLLEDGYNVYQSEAHGLPLHLPGCKSPHRDPAPRGPARFLPLPGLPPAPPEPPGILAPQPPDVGSSDPLSMVGSQGRSPSYAS
modifications: Fusion Protein
As for B1, the EC50 in the series with Mouse GLP-1R was 0.0681 nM; in the series with Human GLP-1R it was 0.131 nM; with Monkey GLP-1R, 0.19 nM. Moreover, the t1/2 mouse in series [1] (FGF21 intact assay) stood at 14.2 h; in series [1] (full-length assay), 13.9 h. Besides, the “Tagg (aggregation onset temperature)” value in series [2] is 66.1 °C. Moreover, the “Tm (melting temperature)” value in series [2] stood at 68.7 °C. For the same molecule, the figures for the t1/2 monkey in series [3] (FGF21 intact assay), in series [3] (GLP-1 intact assay) and in series [3] (full-length assay) were 31.7 h, 21.3 h and 28.7 h, respectively.

B2: 8 (protein)
chain: GHGEGTFTSDKSKQLEEEAVRLFIEWLKAGGPKKIRYSGGGGGGGSGGGGSGGGGSA[… human IgG1 Fc with changes …]GGGSGSAHPIPDSSPLLQFGGQVRQRYLYTDDACQTEAHLEIREDGTVGGAADQSPESLLQLKALKPGVIQILGVKTSRFLCQRPDGALYGSLHFDPEACSFRELLLEDGYNVYQSEAHGLPLHLPGCKSPHRDPAPRGPARFLPLPGLPPAPPEPPGILAPQPPDVGSSDPLSMVYPSQGRSPSYAS
modifications: Fusion Protein
For B2, the figures for the EC50 with Mouse GLP-1R, with Human GLP-1R and with Monkey GLP-1R were 0.0771 nM, 0.152 nM and 0.217 nM, respectively. Also, the values for the t1/2 mouse in series [1] (FGF21 intact assay) and in series [1] (full-length assay) were 17.9 h and 13.3 h, respectively. Moreover, in series [2], the “Tagg (aggregation onset temperature)” value came to 65.3 °C. The “Tm (melting temperature)” value in series [2] was found to be 68.6 °C. In addition, the t1/2 monkey in series [3] (FGF21 intact assay) was found to be 33.6 h; in series [3] (GLP-1 intact assay), 23.7 h; in series [3] (full-length assay), 27.6 h.

For the origin of these results see US20230250147A1, “GLP-1R AGONISTIC PEPTIDES WITH REDUCED ACTIVITY” (SANOFI, priority 2020, published 2023).
